Experimental data: patent US20230293711A1 (Scripps Research, published 2023)

Target: T1, recombinant chimeric mouse CD80-Fc (mouse, UniProt Q00609 38-246, limits assumed)
T1 construct: Commercial Fc chimera; not shown: Fc, detected with anti-human Fc as in panel A
T1 sequence (looked up): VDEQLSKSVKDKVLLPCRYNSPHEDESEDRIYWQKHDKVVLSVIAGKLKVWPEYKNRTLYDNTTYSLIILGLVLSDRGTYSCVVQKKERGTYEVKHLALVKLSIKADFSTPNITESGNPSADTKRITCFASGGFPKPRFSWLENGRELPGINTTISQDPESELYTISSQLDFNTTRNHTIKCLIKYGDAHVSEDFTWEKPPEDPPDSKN
Assay: flow cytometry on murine CD4+ and CD8+ T cells, detection with fluorescent anti-human Fc

B1: CD28 on murine T cells (receptor)
chain: not shown
notes: whole, on cells; T cells (expressing CD28), untreated or treated with sialidase
  binding result: binds
